Test results as given in PubChem BioAssay (Tox21).
Where “and” joins values, the source holds several entries; their conditions need not be identical. Equal entries are not always repeated. The shares of active, inactive and inconclusive entries below differ from those in the screen. Potencies of inconclusive entries are doubtful fits and often do not repeat. Where a structure was tested more than once in an assay, its records may differ in their call. Calls of active or inactive are those of the source. Calls come from the whole dose curve; as a rule, active = well fitted activation curve with a large enough effect in the repeat runs; inconclusive = weak or mixed curves; inactive = flat fitted curve, though single readings scatter.

Assay: A CellTox Green Cytotoxicity Assay to monitor cytotoxicity in HepG2 cells - 24 hour (AID 1224878); note: nearly all actives have a fitted effect of over 45% in size
Settings: CellTox Green fluorescence; series mostly up to 76.8 µM; cytotoxicity: at the top concentration
Procedure, shortened: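 HepG2 cells were seeded together with the CellTox Green dye at 600 cells/well, left 5 h at 37 C/5% CO2, then given compounds in DMSO. Fluorescence from dye bound to dead-cell DNA was read repeatedly over 40 h of treatment at 37 C.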
% is set by controls: 0 for no effect and ±100 for the full control effect; potency is the fitted concentration of half-maximal effect; tags give direction and shape of the fitted curve.

| SMILES | Potency | cytotoxicity |
| --- | --- | --- |
| CC/C=C\CCCCO | inconclusive: 49 µM [activator, single point] |  |
| CC/C=C\CC/C=C/CO |  | inactive: 1.17% |
| O=Cc1cc2ccccc2o1 |  | inactive: -3.83% |
| O=C1C(N(CO)C(=O)NCO)N(CO)C(=O)N1CO (stereo not drawn) | inactive |  |
| O=C1NC(=O)C(c2ccccc2)(c2ccccc2)N1 | inactive and inconclusive: 27.5 µM [activator, partial curve, poor fit] and active: 23.9 µM |  |
| C[Si]1(C)O[Si](C)(C)O[Si](C)(C)O[Si](C)(C)O1 | inconclusive: 5.49 µM [activator, single point] |  |
| C=CC(C)(O)CC/C=C(\C)CC (stereo not drawn) |  | inactive: -1.1% |
| C/C=C1\C(=O)C[C@H]2[C@@H]3CCC4=CC(=O)CC[C@]4(C)[C@H]3CC[C@]12C |  | inactive: -0.145% [at 35.3 µM] |
